Our source for the survival values is PubChem BioAssay AID463173 (ICCB-Longwood Screening Facility, Harvard Medical School, 2010).

Among all 52,000 compounds or so, about 1,700 (3.3%) were called active. Cut-off read from the data, not from the text of the source: active = survival mostly below about 52% (no sharp cut-off); inactive = mostly above about 56%. The list shows a part of the results.

For this test, the system named is Wild type. The experiment in a line: growth inhibition of S. aureus wild type versus tarO mutant, primary screen, teichoic acid synthesis inhibitors, RN4220, OD600 (AID 463173). The following applies: S. aureus RN4220 wild type/DeltatarO growth, OD600, 18 h, stronger effect = lower value, screened at 18.75 µg/mL (by protocol).
As to `Cc1ccc(NC(=O)C2CC=CCC2C(=O)N2CCCCC2)cc1` (stereo unspecified), the survival was inactive: 98%.

Regarding `NC(=O)c1cc(S(=O)(=O)NCC2CCC(C(=O)Nc3ccc(Cl)cc3)CC2)cs1` (stereo unspecified), the survival was inactive: 65%.

Regarding `Cc1nnc(N2CCN(C(=O)Nc3cccc(C(F)(F)F)c3)CC2)c2nn(-c3ccccc3)c(C)c12`, the survival is inactive: 72%.

As to `Cc1cccc(NC(=O)C(O)C(O)C(=O)Nc2cccc(C)c2)c1` (stereo unspecified), the survival was inactive: 108%.

Take `CCOC(=O)c1[nH]c(C)c(CCC(=O)Nc2ccccc2C(=O)OC)c1C`: the survival was inactive: 73%.

Take `CCc1nn(CC(=O)NCCc2ccc(Cl)cc2)c(=O)c2cc3ccccc3n12`: the survival is inactive: 77%.

For the molecule `Cc1cc(N2CCN(c3ccc(F)cc3)CC2)n2nc(-c3ccc(Cl)cc3)nc2n1`, the survival was inactive: 80%.

With `Cc1cc(OCC(=O)NC(Cc2c[nH]c3ccccc23)C(=O)O)ccc1Cl` (stereo unspecified), the survival was inactive: 69%.

`Cc1oc2ncn(C)c(=O)c2c1C(=O)Nc1ccc(F)cc1`: the survival is inactive: 83%.

On to `Cc1cccc(N2CCN(C(=O)c3oc(=O)c4ccccc4c3-c3ccccc3)CC2C)c1` (stereo unspecified), for which the survival was inactive: 71%.

Take `O=c1[nH]c(Nc2nc3ccccc3o2)nc2ccccc12`: the survival is inactive: 91%.

Take `CCOc1ccc2nc(N(Cc3cccnc3)C(=O)C3CCCCC3)sc2c1`: the survival is inactive: 70%.

`Cc1ccc(-c2nnc(Nc3ccccc3)c3ccccc23)cc1S(=O)(=O)N1CCOCC1`: the survival was inactive: 64%.

On to `Cc1ccc(C2CCN(C(=O)Nc3ccc(Cl)c(Cl)c3)C2)cc1` (stereo unspecified), for which the survival was active: -3%.

As to `Cc1ccc(CNC(=O)c2ccc3c(c2)N(Cc2ccccc2Cl)C(=O)CS3)cc1`, the survival was inactive: 75%.

With `COc1ccc(Cn2c(CCC(=O)Nc3ccc(C)cc3C)nc3cccnc32)cc1`, the survival is inactive: 69%.

As to `COc1cccc(CNC(=O)c2cccc(-n3c(C)nc4cccnc43)c2C)c1`, the survival was inactive: 70%.

Consider `Cc1cccc(CSc2nc(=O)c3c(n2C)NC(=O)CC3c2cc(F)cc(F)c2)c1` (stereo unspecified), for which the survival was inactive: 79%.

For `CC(C)OCCCNC(=O)c1ccc(Cn2c(=O)c3cccn3c3cccnc32)cc1`, the survival was inactive: 111%.

Turning to `Cc1oc2ccc(O)c(CN3CCN(C)CC3)c2c1C(=O)Nc1ccccc1`, the survival was inactive: 87%.

`CCOc1cccc2cc(-c3cn4c(n3)sc3ccccc34)c(=O)oc12`: the survival is inactive: 64%.

In the case of `O=C(CCn1c(=O)c2sccc2n(CC(=O)Nc2ccccc2)c1=O)NCc1ccccc1Cl`, the survival is inactive: 97%.

For `Cc1ccsc1CN(C(=O)COc1ccc(Cl)cc1)C1CCS(=O)(=O)C1` (stereo unspecified), the survival was inactive: 88%.

`COc1ccc(-c2[nH]ncc2C(=O)NCc2cccc(OC)c2)cc1`: the survival was inactive: 76%.

Regarding `CC(C(=O)N1c2ccccc2CCc2ccccc21)n1nnc(-c2ccc(N(C)C)cc2)n1` (stereo unspecified), the survival was inactive: 104%.

Regarding `COc1cccc(CNCc2cccn2-c2nnc(N3CCN(c4ccccc4)CC3)s2)c1`, the survival was inactive: 71%.

On to `Cc1ccc(CNC(=O)CSc2nnc(C)c3c(C)n(-c4ccccc4)nc23)cc1`, for which the survival is inactive: 73%.

On to `CC1CCN(S(=O)(=O)c2ccc3c(ccc(=O)n3CC(=O)NCc3ccccc3Cl)c2)CC1`, for which the survival was inactive: 88%.

On to `COc1ccc(NC(=O)CSC2=Nc3ccccc3N=C(c3ccc(F)cc3)C2)cc1OC`, for which the survival is inactive: 68%.

As for `CCN(C(=O)CCNC(=O)Cn1cnc2ccccc2c1=O)c1cc(OC)ccc1OC`, the survival was inactive: 75%.

On to `Cc1ccc2c(c1)c1c(c(=O)n(-c3ccccc3C)c(=O)n1CC(=O)c1ccc(Cl)cc1)n2C`, for which the survival is inactive: 73%.

`O=C1c2cccc3c(N4CCCCC4)ccc(c23)C(=O)N1c1ccccn1`: the survival is inactive: 100%.

Consider `COCCNC(=O)Nc1ccc2c(c1)nc(C)n2C`, for which the survival is inactive: 87%.

`CN(C)c1ccc(NC(=O)Cn2nnc3sc4c(c3c2=O)CCC(C(C)(C)C)C4)cc1` (stereo unspecified): the survival was inactive: 90%.

As to `O=S(=O)(c1ccc(Cl)cc1)c1nnn2c1nc(NC1CCCCC1)c1sccc12`, the survival is inactive: 72%.

As for `CCC1CN(C(=O)N2CCC(C(=O)NCc3cc(OC)c(OC)c(OC)c3)CC2)c2ccccc2O1` (stereo unspecified), the survival is inactive: 87%.

For `Cc1cc(S(=O)(=O)N(C)Cc2ccccc2)ccc1-n1cnnn1`, the survival was inactive: 104%.

Regarding `CN(C)c1ccc(CNC(=O)CN2C(=O)CSc3ccc(S(=O)(=O)N4CCCC4)cc32)cc1`, the survival was inactive: 94%.

Take `CN(C)CC1(c2ccccc2)CCCC1`: the survival was inactive: 104%.

As to `O=C(Nc1ccc2c(c1)OCCO2)C1CCCN(S(=O)(=O)Cc2ccccc2)C1` (stereo unspecified), the survival is inactive: 105%.

For `O=C(Nc1ccc(O)c(-c2nc3ccccc3o2)c1)c1ccc(Br)cc1`, the survival was inactive: 88%.

For `CN(C)c1cccc(C(=O)Nc2nc3ccc(S(=O)(=O)N4CCCC4)cc3s2)c1`, the survival is inactive: 131%.

As to `CCSc1ncc(Cl)c(C(=O)Nc2nc3ccc(Cl)cc3s2)n1`, the survival is inactive: 107%.

For `Cc1cccc(NC(=O)c2oc3ccccc3c2NC(=O)c2cc(=O)c3ccc(C)cc3o2)c1`, the survival was inactive: 77%.

Turning to `Cc1cc(NC(=O)CCc2nc3cccnc3n2Cc2cccs2)ccc1Br`, the survival was inactive: 71%.

For the molecule `Cc1ccc(-n2c(=O)c3c(cnn3C)n(Cc3ccc(Cl)cc3)c2=O)cc1`, the survival is inactive: 139%.

Consider `CCOc1cc(C(=O)Nc2ccc(NC(=O)c3cc4ccccc4o3)c(OC)c2)cc(OCC)c1OCC`, for which the survival is inactive: 132%.

With `CCOc1ccc(CNC(=O)c2ccc3[nH]c(C)c(C)c3c2)cc1OC`, the survival was inactive: 80%.

Regarding `CCc1ccc(NC(=O)N(Cc2c[nH]c3ccccc23)C2CCCCC2)cc1`, the survival is inactive: 93%.

`CCc1ccccc1NC(=O)CSc1nnc(-c2ccc(OC)cc2)s1`: the survival was inactive: 87%.

Take `CC(=O)Nc1ccc(NC(=O)C2CCN(S(=O)(=O)c3ccc4c(c3)CCCC(=O)N4)CC2)cc1`: the survival is inactive: 87%.

As for `Cc1ccc(NS(=O)(=O)c2cc(-c3cc(C)no3)ccc2C)c(Cl)c1`, the survival is inactive: 69%.

For the molecule `CCOc1ccc2nc(N3CCCC(C(=O)Nc4cc(C)ccc4C)C3)sc2c1` (stereo unspecified), the survival was inactive: 125%.

On to `CC(=O)N(C1=NCCCCS1)c1ccccc1`, for which the survival is inactive: 110%.

As for `Cc1ccc(NC(=O)Nc2c[nH]c(=O)[nH]c2=O)c(Cl)c1`, the survival is inactive: 74%.

Turning to `COCCNC(=O)CCCn1c(SCC(=O)c2ccc(Br)cc2)nc2c(sc3ccccc32)c1=O`, the survival is inactive: 84%.

Take `CCN(CC)N=Nc1ccc(NC(C)=O)cc1`: the survival is inactive: 117%.

In the case of `OCCNc1ccc(Cl)cc1`, the survival was inactive: 92%.

With `Cc1cc2c(cc3c(SCc4ccc(Cl)cc4)nncn32)o1`, the survival was inactive: 84%.

For `COc1ccc(C)cc1NC(=O)c1cnc2ccc(C)cn2c1=O`, the survival is inactive: 90%.

On to `O=c1c2ccccc2n(Cc2c(F)cccc2Cl)c(=O)n1CCc1ccccc1`, for which the survival is inactive: 83%.

Regarding `CCOc1cc(C2c3c(oc4ccccc4c3=O)C(=O)N2Cc2ccc(OC)cc2)ccc1O` (stereo unspecified), the survival is inactive: 148%.

As for `Cc1ccn2c(=O)cc(COc3ccc(NC(=O)COc4ccc(C)c(C)c4)cc3)nc2c1`, the survival is inactive: 75%.

With `Cc1ccc(OCC(=O)NCC(c2ccc(Cl)cc2)N2CCOCC2)cc1C` (stereo unspecified), the survival was inactive: 70%.

`O=C(CCCCn1c(=O)c2ccccc2n(Cc2cccc(F)c2)c1=O)NCc1ccc2c(c1)OCO2`: the survival was inactive: 107%.

As for `Cc1cccc(Nc2c(-c3ccsc3)nc3nc(C)cc(C)n23)c1`, the survival was inactive: 125%.

Regarding `Cc1ccc(-c2nc3c4ccccc4n(CC(=O)NCc4ccc(F)cc4)c(=O)n3n2)cc1`, the survival was inactive: 146%.

As to `CN1/C(=C\C(=O)Nc2cccnc2)c2ccccc2CC1(C)C`, the survival is inactive: 111%.

`Cc1ccc(C(=O)c2oc3ccccc3c2NC(=O)Cc2coc3ccc(C)cc23)cc1`: the survival is inactive: 88%.

Take `COc1ccc(-n2cnc3cc(C(=O)NC4CCCCCC4)ccc32)cc1`: the survival was inactive: 128%.

With `O=C(O)c1ccc2nc(-c3cc4cc(Cl)ccc4oc3=O)[nH]c2c1`, the survival is inactive: 73%.

For `Cc1ccc2onc(CNC(=O)NCc3ccc(Cl)cc3)c2c1`, the survival is inactive: 89%.

On to `O=C1COc2cc(S(=O)(=O)CCC(=O)NC3CCCCC3)c(Cl)cc2N1`, for which the survival is inactive: 91%.

Take `COc1ccc(C)cc1-n1cnc2cc(C(=O)NC3CCCCCC3)ccc21`: the survival is inactive: 87%.

Consider `Cn1c(SCC(=O)Nc2nc3ccccc3s2)ncc(C(=O)Nc2ccccc2)c1=O`, for which the survival was inactive: 75%.

Consider `Cc1csc(NC(=O)c2cccnc2)n1`, for which the survival was inactive: 114%.

Regarding `CCc1nc(-c2cc(S(=O)(=O)N3CCN(c4ccccc4)CC3)ccc2OC)no1`, the survival is inactive: 85%.

As for `CCc1nn(CC(=O)NCCCN(CC)CC)c(=O)c2cc3occc3n12`, the survival is inactive: 135%.

For `COc1cccc(CNC(=O)CN2C(=O)N(c3ccc(C)cc3C)S(=O)(=O)c3ccccc32)c1OC`, the survival was inactive: 65%.

With `O=C(CSc1nccn1-c1cccc(Cl)c1)Nc1cccc2ccccc12`, the survival was inactive: 64%.

In the case of `CCOc1ccc(CCNC(=O)CCCc2nnc3n(CC)c(=O)c4sccc4n23)cc1`, the survival was inactive: 98%.

For `CCSc1ncc(Cl)c(C(=O)Nc2c(C(=O)Nc3ccccc3)oc3ccccc23)n1`, the survival was inactive: 112%.

On to `O=C(O)C(NS(=O)(=O)c1ccccc1)C(O)c1ccccc1` (stereo unspecified), for which the survival was inactive: 110%.

On to `COc1cccc(C(=O)Nc2cccc(-c3nc4ncccn4c3C)c2)c1`, for which the survival was inactive: 133%.

Regarding `O=C(O)c1c(-c2ccccc2)oc2ccc(OCc3c(F)cccc3Cl)cc12`, the survival is inactive: 38%.

Consider `Cn1c(=O)c2c(-c3ccc(Br)cc3)n(Cc3ccc(F)cc3)cc2n(C)c1=O`, for which the survival is inactive: 39%.

`COc1ccc(-c2nc3cc(C)ccn3c2NC(=O)c2cccc(F)c2)cc1`: the survival was inactive: 81%.

Take `O=C(N/N=C/c1ccco1)C1c2ccccc2Oc2ccccc21`: the survival was inactive: 101%.

For the molecule `Cc1ccc(/C=C(\C#N)C(=O)Nc2cccc(Cl)c2)o1`, the survival is inactive: 101%.

For `COc1ccc(CCNC(=O)C2CCN(Cc3nc(-c4ccc(OC)c(OC)c4)oc3C)CC2)cc1OC`, the survival was inactive: 87%.

For `O=C(NCCn1cc(SCc2ccc(Br)cc2)c2ccccc21)c1cccs1`, the survival was inactive: 134%.
